{"source": "paper PMC4336329", "about": "(PLoS ONE, 2015)", "note": "In all, about 310,000 compounds went through this assay and about 14,000 (4.5%) showed an effect of 50% or more. The effect is printed as a negative number. This is one part of the list.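 Also: peak tail current of the secondary pulse compared with the same well before compound.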", "data": [{"biological_target": "human ether-à-go-go-related gene (hERG) potassium channel (human, UniProt Q12809)", "sequence (Q12809 whole entry, looked up)": "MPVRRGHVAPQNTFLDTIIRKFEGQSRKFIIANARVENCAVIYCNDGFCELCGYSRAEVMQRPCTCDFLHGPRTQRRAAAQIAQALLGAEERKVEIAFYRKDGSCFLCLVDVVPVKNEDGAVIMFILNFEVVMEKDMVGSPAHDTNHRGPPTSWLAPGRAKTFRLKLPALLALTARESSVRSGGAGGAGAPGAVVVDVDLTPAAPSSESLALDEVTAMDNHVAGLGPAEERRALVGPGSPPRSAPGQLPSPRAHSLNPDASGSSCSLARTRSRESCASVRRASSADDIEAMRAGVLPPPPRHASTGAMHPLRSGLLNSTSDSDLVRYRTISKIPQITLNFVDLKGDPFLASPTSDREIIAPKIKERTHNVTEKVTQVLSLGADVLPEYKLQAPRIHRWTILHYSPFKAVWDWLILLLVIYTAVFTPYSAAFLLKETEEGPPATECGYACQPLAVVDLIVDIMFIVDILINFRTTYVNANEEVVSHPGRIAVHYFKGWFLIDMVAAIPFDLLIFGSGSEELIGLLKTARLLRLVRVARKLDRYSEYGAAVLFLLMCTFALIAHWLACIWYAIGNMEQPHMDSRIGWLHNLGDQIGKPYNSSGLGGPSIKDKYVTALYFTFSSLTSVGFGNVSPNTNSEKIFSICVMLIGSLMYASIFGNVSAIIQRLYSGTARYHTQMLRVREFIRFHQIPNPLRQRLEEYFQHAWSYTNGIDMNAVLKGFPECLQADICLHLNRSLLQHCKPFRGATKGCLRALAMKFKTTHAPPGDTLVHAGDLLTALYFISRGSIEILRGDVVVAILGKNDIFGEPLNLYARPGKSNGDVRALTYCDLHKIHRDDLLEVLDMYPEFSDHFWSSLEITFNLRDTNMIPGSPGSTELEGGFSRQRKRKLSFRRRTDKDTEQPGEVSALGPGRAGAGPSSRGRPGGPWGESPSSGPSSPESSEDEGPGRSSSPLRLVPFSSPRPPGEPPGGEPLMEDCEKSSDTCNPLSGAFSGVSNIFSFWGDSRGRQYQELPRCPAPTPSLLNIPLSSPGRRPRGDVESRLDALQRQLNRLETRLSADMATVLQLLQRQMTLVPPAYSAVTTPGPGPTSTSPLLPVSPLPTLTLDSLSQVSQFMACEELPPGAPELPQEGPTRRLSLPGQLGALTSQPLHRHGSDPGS", "assay": "primary screen, population patch clamp on CHO cells stably expressing hERG", "units": {"hERG current change (%, negative = inhibition) at 10uM": "%"}, "values": [{"smiles": "CC[N+](CC)(CC)CCC(O)(c1ccccc1)C1CCCCC1.[Cl-]", "note": "(centres unmarked)", "hERG current change (%, negative = inhibition) at 10uM": 11.2}, {"smiles": "CC1Cc2ccccc2N1C(=O)C1CC(=O)N(c2ccccc2)C1", "note": "(centres unmarked)", "hERG current change (%, negative = inhibition) at 10uM": 1.63}, {"smiles": "COc1ccccc1NC(=O)CSc1nnc(C2CCCCC2)n1C", "hERG current change (%, negative = inhibition) at 10uM": 3.77}, {"smiles": "NC1=NC(=Nc2cccc(S(N)(=O)=O)c2)c2ccccc21", "hERG current change (%, negative = inhibition) at 10uM": 8.88}, {"smiles": "OCC1(Cc2ccccc2)CCN(CCCC2CCCC2)CC1", "hERG current change (%, negative = inhibition) at 10uM": -76.8}, {"smiles": "O=C(CC(=O)c1ccccc1)Nc1ccc2c(c1)OCCO2", "hERG current change (%, negative = inhibition) at 10uM": -4.09}, {"smiles": "COC(=O)c1sc(S(=O)(=O)N2CCC(C(N)=O)CC2)c(C(=O)OC)c1C", "hERG current change (%, negative = inhibition) at 10uM": -19.6}, {"smiles": "Cc1cc(NS(=O)(=O)c2ccc(NC(=O)CCN3C(=O)c4ccccc4C3=O)cc2)no1", "hERG current change (%, negative = inhibition) at 10uM": 10.2}, {"smiles": "COc1ccc(O)c(-c2nc(N)nc(N)n2)c1", "hERG current change (%, negative = inhibition) at 10uM": -5.7}, {"smiles": "CC(C)(C)C(=O)N1CCN(c2ccc(Cl)cc2[N+](=O)[O-])CC1", "hERG current change (%, negative = inhibition) at 10uM": -39.3}, {"smiles": "Cc1cccc(OCC(=O)N(Cc2ccc(F)cc2)C2CCS(=O)(=O)C2)c1C", "note": "(centres unmarked)", "hERG current change (%, negative = inhibition) at 10uM": -42.6}, {"smiles": "COc1ccc(NC(=O)COC(C)=O)cc1OC", "hERG current change (%, negative = inhibition) at 10uM": 22.1}, {"smiles": "O=C(Nc1ccc2c(c1)OCO2)C1CC(=O)N(CCc2ccccc2)C1", "note": "(centres unmarked)", "hERG current change (%, negative = inhibition) at 10uM": -19.8}, {"smiles": "CC(=O)Nc1cccc(OCC(=O)/C=C2\\N(C)c3ccccc3C2(C)C)c1", "hERG current change (%, negative = inhibition) at 10uM": 2.6}, {"smiles": "CN1CCN(C(=O)c2ccc(Cl)c(S(=O)(=O)N3CCCCCC3)c2)CC1", "hERG current change (%, negative = inhibition) at 10uM": -26.3}, {"smiles": "CC(=O)N1c2ccc(S(=O)(=O)N3CCCC3)cc2CC1C(=O)NCc1ccccc1F", "note": "(centres unmarked)", "hERG current change (%, negative = inhibition) at 10uM": 11.2}, {"smiles": "O=C(CSc1nc2ccccc2s1)Nc1ccc2c(c1)oc1ccccc12", "hERG current change (%, negative = inhibition) at 10uM": 4.02}, {"smiles": "COc1ccc(-n2ncc3c2CC(C)(C)CC3NC(=O)CCc2c(C)noc2C)cc1", "note": "(centres unmarked)", "hERG current change (%, negative = inhibition) at 10uM": -21.7}, {"smiles": "Cc1nc(SCC(=O)Nc2ccccc2Cl)c2c(C)c(C)sc2n1", "hERG current change (%, negative = inhibition) at 10uM": 9.21}, {"smiles": "COc1cc(OC)c(CNC2CCCCCC2)cc1Br", "hERG current change (%, negative = inhibition) at 10uM": -1.25}, {"smiles": "COc1cc(/C=N/O)cc(Br)c1OCC(=O)NCc1ccccc1", "hERG current change (%, negative = inhibition) at 10uM": -27}, {"smiles": "N#C/C(C(=O)N1CCOCC1)=C1/SC(Cc2ccccc2)C(=O)N1c1ccccc1", "note": "(centres unmarked)", "hERG current change (%, negative = inhibition) at 10uM": -13.6}, {"smiles": "Cc1cccc(NC(=O)C2CCCN(S(=O)(=O)c3ccc4c(c3)oc(=O)n4C)C2)c1", "note": "(centres unmarked)", "hERG current change (%, negative = inhibition) at 10uM": -18.3}, {"smiles": "CC(C)OC(=O)c1cc(C(=O)c2cc(Cl)ccc2O)coc1=N", "hERG current change (%, negative = inhibition) at 10uM": 13.3}, {"smiles": "CCOc1cc(CNc2ccc(N(C)C)cc2)cc(Br)c1OCC(=O)NC(C)(C)C", "hERG current change (%, negative = inhibition) at 10uM": -17}, {"smiles": "COc1cccc(NC(=O)N2CCCC2C(=O)NCc2ccccc2F)c1", "note": "(centres unmarked)", "hERG current change (%, negative = inhibition) at 10uM": -4.14}, {"smiles": "CCOCC(=O)Nc1nc2ccc(C)cc2s1", "hERG current change (%, negative = inhibition) at 10uM": -4.98}, {"smiles": "CSc1ccccc1NC(=O)Cn1nc([N+](=O)[O-])cc1C", "hERG current change (%, negative = inhibition) at 10uM": 6.48}, {"smiles": "CC(C)c1ccc(NC(=O)COc2ccc(F)cc2C(=O)c2cnn(-c3ccccc3)c2)cc1", "hERG current change (%, negative = inhibition) at 10uM": 5.96}, {"smiles": "Cc1noc(C)c1CSc1nnc(-c2ccccc2)n1N", "hERG current change (%, negative = inhibition) at 10uM": 6.27}, {"smiles": "CCN1/C(=C2\\C(=O)N(C)C(=S)N2C)C=Cc2ccccc21", "hERG current change (%, negative = inhibition) at 10uM": 9.44}, {"smiles": "O=C(NC1CCCC1)C1CCC(CNS(=O)(=O)c2ccc(F)cc2)CC1", "note": "(centres unmarked)", "hERG current change (%, negative = inhibition) at 10uM": -6.07}, {"smiles": "CCOC(=O)CSc1nc2ccc(Nc3nc(N4CCOCC4)nc(N4CCOCC4)n3)cc2s1", "hERG current change (%, negative = inhibition) at 10uM": -0.709}, {"smiles": "CC(CC(=O)N1CCN(S(=O)(=O)c2ccccc2)CC1)n1cncn1", "note": "(centres unmarked)", "hERG current change (%, negative = inhibition) at 10uM": 20.1}, {"smiles": "COc1ccccc1/C=N/NC(=O)c1cccc(OC(F)(F)C(F)F)c1", "hERG current change (%, negative = inhibition) at 10uM": -9.51}, {"smiles": "Cc1ccc(CSCCNC(=O)CN(c2ccc(F)cc2)S(C)(=O)=O)cc1", "hERG current change (%, negative = inhibition) at 10uM": 12.4}, {"smiles": "CN1C(=O)CC(N2CCC(C(N)=O)(N3CCCCC3)CC2)C1=O", "note": "(centres unmarked)", "hERG current change (%, negative = inhibition) at 10uM": 1.9}, {"smiles": "CC(=O)Nc1ccccc1S(=O)(=O)CC1CC1(Cl)Cl", "note": "(centres unmarked)", "hERG current change (%, negative = inhibition) at 10uM": 13.1}, {"smiles": "Oc1c(Br)cc(Cl)cc1C=Nc1ccc(N2CCOCC2)cc1", "hERG current change (%, negative = inhibition) at 10uM": 19.6}, {"smiles": "CSc1nnnn1-c1ccc(Cl)cc1", "hERG current change (%, negative = inhibition) at 10uM": -0.432}, {"smiles": "Cc1ccc2[nH]c(=O)c(CN(CCCN3CCOCC3)C(=O)Nc3cccc(Cl)c3)cc2c1", "hERG current change (%, negative = inhibition) at 10uM": -32.4}, {"smiles": "COc1ccc(C(=O)C2CCCN(S(=O)(=O)c3cccnc3)C2)c(C)c1", "note": "(centres unmarked)", "hERG current change (%, negative = inhibition) at 10uM": -1.1}, {"smiles": "COc1ccc(/C=C(\\NC(=O)c2ccccc2)C(=O)OCC2CCCN3CCCCC23)cc1OC", "note": "(centres unmarked)", "hERG current change (%, negative = inhibition) at 10uM": -40.7}, {"smiles": "CC(C)COC(=O)N1C[C@H](O)C[C@H]1C(=O)Nc1ccc(Cl)cc1", "hERG current change (%, negative = inhibition) at 10uM": 14.9}, {"smiles": "COC(=O)CSc1nnc(C)n1-c1ccc(C)cc1", "hERG current change (%, negative = inhibition) at 10uM": 8.35}, {"smiles": "O=C(CN1CCOCC1)c1ccc2cc[nH]c2c1", "hERG current change (%, negative = inhibition) at 10uM": 8.82}, {"smiles": "COc1ccc(C2(c3ccc(OC)cc3)NC(=O)N(CC(=O)N(C)C)C2=O)cc1", "hERG current change (%, negative = inhibition) at 10uM": 13.7}, {"smiles": "CC(N)Cc1ccccc1Sc1ccc(O)cc1.O=C(O)C(=O)O", "note": "(centres unmarked)", "hERG current change (%, negative = inhibition) at 10uM": -35.5}, {"smiles": "Cl.Nn1cnnc1N/N=C/c1ccccc1C(F)(F)F", "hERG current change (%, negative = inhibition) at 10uM": 32.8}, {"smiles": "COc1ccc(NS(=O)(=O)c2cc(NC(=O)c3ccc(=O)[nH]c3)ccc2C)cc1", "hERG current change (%, negative = inhibition) at 10uM": 15.1}, {"smiles": "CCc1c(C(=O)NCCc2ccc(OC)c(OC)c2)[nH]c(C)c1C(C)=O", "hERG current change (%, negative = inhibition) at 10uM": 6.35}, {"smiles": "Cc1ccccc1-c1nn(-c2ccc(F)cc2F)cc1CNCC(C)O", "note": "(centres unmarked)", "hERG current change (%, negative = inhibition) at 10uM": -8.07}, {"smiles": "CC(C)[C@H](NS(=O)(=O)c1ccccc1)C(=O)OCn1nnc2ccccc2c1=O", "hERG current change (%, negative = inhibition) at 10uM": 0.657}, {"smiles": "COc1ccccc1CNC(=O)c1ccc(NS(=O)(=O)c2c(C)noc2C)cc1", "hERG current change (%, negative = inhibition) at 10uM": -5.41}, {"smiles": "O=C(c1ccncc1)c1ccc(N2CCN(C3CC(=O)N(Cc4ccccc4)C3=O)CC2)cc1", "note": "(centres unmarked)", "hERG current change (%, negative = inhibition) at 10uM": -76.2}, {"smiles": "COc1ccccc1CCNS(=O)(=O)c1cc2c3c(c1)C(C)C(=O)N3CCC2", "note": "(centres unmarked)", "hERG current change (%, negative = inhibition) at 10uM": -8.01}]}]}
